# The supplement of paper PMC8728848
# The list shows a part of the results.
# Experiments:
# Test in all cases: glycan array binding signal (z-score within array); higher = stronger binding
# Details in all cases: glycan notation: IUPAC condensed, linker removed
# [1] = target: Gal(b1-4)GlcNAc(b1-3)Gal(b1-4)GlcNAc(b1-3)[Gal(b1-4)GlcNAc(b1-3)Gal(b1-4)GlcNAc(b1-6)]GalNAc
# How it was run: (§1)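 Arrays were curated from the Consortium for Functional Glycomics database, 3228 in total, and kept only where the protein sequence was available. Binding is expressed as a within-array Z-score. This score was averaged across arrays of the same protein sequence at different concentrations or buffers and across linkers, and negative values can be read as non-binding.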
# [2] = target: Gal(b1-4)GlcNAc(b1-3)Gal(b1-4)GlcNAc(b1-6)[Gal(b1-3)]GalNAc
# How it was run: as §1
# [3] = target: Gal(b1-4)GlcNAc(b1-3)Gal(b1-4)[Fuc(a1-3)]GlcNAc(b1-3)Gal(b1-4)[Fuc(a1-3)]GlcNAc
# How it was run: as §1
# [4] = target: Gal(b1-4)GlcNAc(b1-3)GalNAc
# How it was run: as §1
# [5] = target: Gal(b1-4)GlcNAc(b1-3)[Fuc(a1-3)GlcNAc(b1-6)]Gal(b1-4)Glc
# How it was run: as §1
# [6] = target: Gal(b1-4)GlcNAc(b1-3)[Gal(b1-4)GlcNAc(b1-6)]Gal(b1-4)GlcNAc
# How it was run: as §1
# [7] = target: Gal(b1-4)GlcNAc(b1-3)[GlcNAc(b1-6)]Gal(b1-4)GlcNAc
# How it was run: as §1
# [8] = target: Gal(b1-4)GlcNAc(b1-6)Gal(b1-4)GlcNAc
# How it was run: as §1
# [9] = target: Gal(b1-4)GlcNAc(b1-6)GalNAc
# How it was run: as §1
# [10] = target: Gal(b1-4)GlcNAc(b1-6)[Gal(b1-3)]GalNAc
# How it was run: as §1
# [11] = target: Gal(b1-4)GlcNAc(b1-6)[Gal(b1-4)GlcNAc(b1-3)]GalNAc
# How it was run: as §1
# [12] = target: Gal(b1-4)GlcNAc6P
# How it was run: as §1
# [13] = target: Gal(b1-6)Gal
# How it was run: as §1
# [14] = target: Gal3S(b1-3)GalNAc
# How it was run: as §1
# [15] = target: Gal3S(b1-3)GlcNAc
# How it was run: as §1
# [16] = target: Gal3S(b1-3)[Fuc(a1-4)]GlcNAc
# How it was run: as §1
# [17] = target: Gal3S(b1-4)Glc
# How it was run: as §1
# [18] = target: Gal3S(b1-4)Glc6S
# How it was run: as §1
# [19] = target: Gal3S(b1-4)GlcNAc
# How it was run: as §1
# [20] = target: Gal3S(b1-4)[Fuc(a1-3)]Glc6S
# How it was run: as §1
# [21] = target: Gal3S(b1-4)[Fuc(a1-3)]GlcNAc
# How it was run: as §1
# [22] = target: Gal3S(b1-4)[Fuc(a1-3)]GlcNAc6S
# How it was run: as §1
# [23] = target: Gal3S4S(b1-4)GlcNAc
# How it was run: as §1
# [24] = target: Gal3S6S(b1-4)GlcNAc
# How it was run: as §1
# [25] = target: Gal3S6S(b1-4)GlcNAc6S
# How it was run: as §1
# [26] = target: Gal4S(b1-4)GlcNAc
# How it was run: as §1
# [27] = target: Gal4S6S(b1-4)GlcNAc
# How it was run: as §1
# [28] = target: Gal6P(b1-4)GlcNAc
# How it was run: as §1
# [29] = target: Gal6S(b1-3)GlcNAc
# How it was run: as §1
# [30] = target: Gal6S(b1-3)GlcNAc6S
# How it was run: as §1
# [31] = target: Gal6S(b1-4)Glc
# How it was run: as §1
# [32] = target: Gal6S(b1-4)Glc6S
# How it was run: as §1
# [33] = target: Gal6S(b1-4)GlcNAc
# How it was run: as §1
# [34] = target: Gal6S(b1-4)GlcNAc6S
# How it was run: as §1
# [35] = target: GalNAc(a1-3)Gal
# How it was run: as §1
# [36] = target: GalNAc(a1-3)GalNAc
# How it was run: as §1
# [37] = target: GalNAc(a1-3)GalNAc(b1-3)Gal(a1-4)Gal(b1-4)Glc
# How it was run: as §1
# [38] = target: GalNAc(a1-3)GalNAc(b1-3)Gal(a1-4)Gal(b1-4)GlcNAc
# How it was run: as §1
# [39] = target: GalNAc(b1-3)Gal
# How it was run: as §1
# [40] = target: GalNAc(b1-3)Gal(a1-4)Gal(b1-4)GlcNAc
# How it was run: as §1
# [41] = target: GalNAc(b1-3)Gal(a1-4)Gal(b1-4)GlcNAc(b1-3)Gal(b1-4)Glc
# How it was run: as §1
# [42] = target: GalNAc(b1-3)Gal(a1-6)Gal(b1-4)Glc
# How it was run: as §1
# [43] = target: GalNAc(b1-3)GalNAc
# How it was run: as §1
# [44] = target: GalNAc(b1-3)GlcNAc
# How it was run: as §1
# [45] = target: GalNAc(b1-4)Gal(b1-4)Glc
# How it was run: as §1
binder,measurement,setting,value
Als3-N (Candida albicans) (protein) KTITGVFNSFNSLTWSNAATYNYKGPGTPTWNAVLGWSLDGTSASPGDTFTLNMPCVFKFTTSQTSVDLTAHGVKYATCQFQAGEEFMTFSTLTCTVSNTLTPSIKALGTVTLPLAFNVGGTGSSVDLEDSKCFTAGTNTVTFNDGGKKISINVDFERSNVDPKGYLTDSRVIPSLNKVSTLFVAPQCANGYTSGTMGFANTYGDVQIDCSNIHVGITKGLNDWNYPVSSESFSYTKTCSSNGIFITYKNVPAGYRPFVDAYISATDVNSYTLSYANEYTCAGGYWQRAPFTLRWTGYRNSDAGSNGIVIVATTRTVTDSTTAVTTLPFDPNRDKTKTIEILKPIPTTTITTSYVGVTTSYLTKTAPIGETATVIVDIPYHTTTTVTSKWTGTITSTTTHTNPTDSIDTVIVQVP,glycan array binding signal (z-score),[1],1.05
same,glycan array binding signal (z-score),[2],0.43
same,glycan array binding signal (z-score),[3],-0.321
same,glycan array binding signal (z-score),[4],-0.27
same,glycan array binding signal (z-score),[5],-0.243
same,glycan array binding signal (z-score),[6],0.09
same,glycan array binding signal (z-score),[7],-0.129
same,glycan array binding signal (z-score),[8],-0.106
same,glycan array binding signal (z-score),[9],-0.09
same,glycan array binding signal (z-score),[10],-0.219
same,glycan array binding signal (z-score),[11],-0.067
same,glycan array binding signal (z-score),[12],-0.299
same,glycan array binding signal (z-score),[13],-0.155
same,glycan array binding signal (z-score),[14],-0.254
same,glycan array binding signal (z-score),[15],-0.068
same,glycan array binding signal (z-score),[16],-0.039
same,glycan array binding signal (z-score),[17],-0.25
same,glycan array binding signal (z-score),[18],-0.166
same,glycan array binding signal (z-score),[19],-0.188
same,glycan array binding signal (z-score),[20],0.799
same,glycan array binding signal (z-score),[21],-0.241
same,glycan array binding signal (z-score),[22],-0.215
same,glycan array binding signal (z-score),[23],-0.088
same,glycan array binding signal (z-score),[24],-0.146
same,glycan array binding signal (z-score),[25],-0.089
same,glycan array binding signal (z-score),[26],-0.268
same,glycan array binding signal (z-score),[27],-0.043
same,glycan array binding signal (z-score),[28],-0.315
same,glycan array binding signal (z-score),[29],-0.057
same,glycan array binding signal (z-score),[30],-0.216
same,glycan array binding signal (z-score),[31],-0.186
same,glycan array binding signal (z-score),[32],-0.074
same,glycan array binding signal (z-score),[33],-0.293
same,glycan array binding signal (z-score),[34],-0.275
same,glycan array binding signal (z-score),[35],0.149
same,glycan array binding signal (z-score),[36],-0.159
same,glycan array binding signal (z-score),[37],-0.271
same,glycan array binding signal (z-score),[38],-0.242
same,glycan array binding signal (z-score),[39],-0.183
same,glycan array binding signal (z-score),[40],-0.167
same,glycan array binding signal (z-score),[41],-0.222
same,glycan array binding signal (z-score),[42],-0.246
same,glycan array binding signal (z-score),[43],0.013
same,glycan array binding signal (z-score),[44],-0.135
same,glycan array binding signal (z-score),[45],-0.074
